Source: PubChem BioAssay AID1347120 (National Center for Advancing Translational Sciences (NCATS), 2019)
About 930 (0.24%) of roughly 390,000 compounds were called active. Inconclusive means that the source gave no clear call. Such entries were picked first, then a sample of the others. Calls come from the whole dose curve; as a rule, active = well fitted activation curve with a large enough effect; inconclusive = small, poorly fitted or top-dose-only effect; inactive = no such curve, though single readings can be large or run the other way. Where the call is inconclusive, the potency comes from a doubtful curve fit.

Test: qHTS for Suppressors of FUS Proteinopathy: Primary screen using FUS-linked yeast assay; note: nearly all actives have a fitted effect of over 55% in size;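 for growth rescue (activation): plate controls were DMSO vehicle for no effect and reference control for full effect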
Settings: S. cerevisiae FUS-expressing, OD600, 24 h; Potency: growth rescue; growth rescue (activation): at 76.6 µM (top of the series)
Outline: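 Quantitative HTS measuring growth restoration of FUS-toxic yeast. Galactose-induced cells (OD 0.005) were exposed 24hr at 30C to compounds at several concentrations, then absorbance at 600 nm was recorded.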
Potency is the fitted concentration of half-maximal effect; tags give direction and shape of the fitted curve.

SMILES	Potency	growth rescue (activation)
Cc1c(C)c2c(OCC(=O)NCc3ccco3)cc3c(c2oc1=O)CCC(C)(C)O3	inactive	–
CC1CCN(S(=O)(=O)c2cc(C(=O)N3CCN(c4ccccc4)CC3)ccc2Br)CC1	inconclusive: 28.2 µM [activator, single point]	–
CCOC(=O)[C@]12CCCC=C1N(Cc1cccc3ccccc13)C(=O)[C@H](CC(=O)NCc1ccc(OC)c(OC)c1)C2	inconclusive: 15.8 µM [activator, partial curve, poor fit]	–
O=C(CN(Cc1ccc(F)cc1)C(=O)CCC(=O)Nc1nccs1)NCc1ccc(F)cc1	inconclusive: 31.6 µM [activator, single point]	–
Cc1ccc2sc(-c3ccc(NC(=O)c4cc(-n5cnnc5)ccc4Cl)cc3)nc2c1	inconclusive: 14.1 µM [activator, partial curve, poor fit]	–
COc1ccc(NC(=O)CNC(=O)Cn2ccc3ccccc3c2=O)cc1OC	inactive	–
CCc1ccc(NC(=O)c2cc(=O)c3ccc(C)c(C)c3o2)cc1	inactive	–
Cc1ccc(S(=O)(=O)NC(=O)C2(C)CCN2C(=O)c2ccccc2CCc2ccccc2)cc1 (stereo not drawn)	inconclusive: 39.8 µM [activator, single point]	–
CNC(=O)c1cnc2sc(N3CCC(C)CC3)nn2c1=O	inactive	–
O=C(Nc1ccc2c(c1)OCCO2)c1c(F)cccc1F	inactive	–
CSc1ncc(Cl)c(C(=O)Nc2nnc(SC/C=C/c3ccccc3)s2)n1	inconclusive: 25.1 µM [activator, partial curve]	–
CCCC(=O)N1CCN(c2nc(CC(C)C)c3c(c2C#N)CCC3)CC1	inconclusive: 25.1 µM [activator, single point]	–
Cc1ccc(NC(=O)c2cc(NC(=O)C3CC=CCC3C(=O)O)ccc2N2CCOCC2)cc1Cl (stereo not drawn)	inconclusive: 25.1 µM [activator, single point]	–
C[C@H](CO)N1C[C@H](C)[C@@H](CN(C)S(=O)(=O)c2ccc(F)cc2)Oc2ccc(NC(=O)Nc3ccc(C(F)(F)F)cc3)cc2C1=O	inconclusive: 28.2 µM [activator, single point]	–
O=c1[nH]c(CSc2nc(-c3ccccc3)cs2)nc2ccccc12	inactive	–
COc1cc2c(cc1OC)C(COc1cc(C)cc(C)c1)N(C(=O)C(C)(C)C)CC2 (stereo not drawn)	inconclusive: 35.5 µM [activator, partial curve, poor fit]	–
Cc1cccc(C(=O)Nc2nc3ncccn3c2-c2ccc(C(F)(F)F)cc2)c1	inconclusive: 28.2 µM [activator, single point]	–
CCCNC(=O)c1ccc(N2CCC3(CC2)CC(c2cccc(Br)c2)=NO3)c(NC(=O)c2cccc(C)c2)c1	inconclusive: 10 µM [activator, partial curve, poor fit]	–
C/C(O)=C(/C#N)c1nc2ccccc2[nH]1	inactive	–
COc1ccc([C@H]2[C@@H]3C=CCC[C@@]3(C)C(=O)N2Cc2ccccc2)cc1Cl	inconclusive: 50.1 µM [activator, single point]	–
CCN(CC)CCn1nc(C)nc1-c1ccccc1O	–	inconclusive: 58% [activator]

SMILES	Potency	growth rescue (activation)
CC(=O)n1cc([C@@H]2C=C(C(=O)Nc3ccccc3)O[C@H](OCc3ccc(CO)cc3)C2)c2ccccc21	inconclusive: 14.1 µM [activator, partial curve, poor fit]	–
COc1cccc(NC(=O)N(CCCN2CCOCC2)C(C)c2cc3ccccc3o2)c1 (stereo not drawn)	inconclusive: 50.1 µM [activator, partial curve, poor fit]	–
COc1ccc(C(C(=O)NC2CCCC2)N(C(=O)c2snc(C(N)=O)c2N)c2cccc(O)c2)cc1 (stereo not drawn)	inconclusive: 50.1 µM [activator, single point]	–
Cc1cc(C)c2nc(N3CCCN(C(=O)c4ccco4)CC3)c(C#N)cc2c1	inactive	–
COc1cc(NC(=O)CCC(=O)O)nc(OC)n1	inactive	–
Cc1cccc2cc3c(N)c(C#N)sc3nc12	inactive	–
CCCCNC(=O)CSc1nc2cc3c(cc2c(=O)n1CCCC(=O)NCc1ccc(OC)cc1)OCO3	inactive	–
CC(C)CC(=O)NC1CC(=O)N(c2ccc3c(c2)OCCO3)C1 (stereo not drawn)	inactive	–
COc1ccc(-n2c(=O)c3c(C)c(C)sc3n(Cc3cccc(F)c3)c2=O)c(OC)c1	inactive	–
CCC1CN(S(=O)(=O)c2cc(-c3cc(C)no3)ccc2OC)c2cc(Cl)ccc2O1 (stereo not drawn)	inconclusive: 50.1 µM [activator, single point]	–
O=C1CN(C(=O)c2ccc(S(=O)(=O)N3CCCC3)cc2)C(c2ccc(F)cc2)c2cc(Br)ccc2N1 (stereo not drawn)	inconclusive: 35.5 µM [activator, single point]	–
CN1CCN(c2nc3cc(C(F)(F)F)ccc3n3cccc23)CC1	inactive	–
CCC1CCc2c(sc(NC(=O)c3cnccn3)c2C(N)=O)C1 (stereo not drawn)	inactive	–
CC1Nc2ncnc(N3CCN(c4ccccc4)CC3)c2N(Cc2ccc(Br)cc2)C1=O (stereo not drawn)	inconclusive: 11.2 µM [activator, partial curve]	–
COc1cccc(NC(=S)N2CCc3cc(OC)c(OC)cc3C2COc2ccc3c(C)cc(=O)oc3c2)c1 (stereo not drawn)	inconclusive: 7.08 µM [activator, full curve]	–
O=C(Nc1cccc(S(=O)(=O)N2CCCCCC2)c1)C1CCN(C(=O)c2ccc(F)cc2)CC1	inconclusive: 31.6 µM [activator, partial curve, poor fit]	–
Cc1ccccc1NC(=O)CSc1ccc(-c2cccnc2)nn1	inactive	–
C[C@@H]1CN([C@H](C)CO)C(=O)c2cccc(NC(=O)Nc3ccc(C(F)(F)F)cc3)c2O[C@H]1CN(C)S(=O)(=O)c1cccs1	inconclusive: 28.2 µM [activator, single point]	–
COc1ccccc1C1=CC(=O)C[C@H](c2ccc(F)cc2)C1	inconclusive: 35.5 µM [activator, single point]	–
CC(Nc1oc(-c2ccc(COc3ccccc3)o2)nc1C#N)c1ccccc1 (stereo not drawn)	inactive	–
O=C(CSc1nc2c([nH]c3ccccc32)c(=O)n1-c1ccccc1F)Nc1cccc(Cl)c1	inconclusive: 7.08 µM [activator, partial curve, poor fit]	–

SMILES	Potency	growth rescue (activation)
O=C(COC(=O)c1cc([N+](=O)[O-])ccc1N1CCOCC1)NCc1ccccc1	inactive	–
CCc1ccccc1N(CC(=O)N1CCCCC1)S(=O)(=O)c1ccccc1	inactive	–
CCC(Sc1nnc(-c2ccc(F)cc2)c(-c2ccc(F)cc2)n1)C(=O)NC1CCCC1 (stereo not drawn)	inconclusive: 50.1 µM [activator, single point]	–
Cc1cccc(CNC(=O)C2CCN(c3nn4cc(-c5ccc(F)cc5)nc4s3)CC2)c1	inactive	–
COc1ccc(-n2ncc(C(=O)NCc3cccs3)c2C2CCN(C(=O)OC(C)(C)C)CC2)cc1	inconclusive: 35.5 µM [activator, single point]	–
N#CC1=C(S)N(c2ccccc2)C(c2ccc(-c3cccc(Cl)c3)o2)NC1=O (stereo not drawn)	inactive	–
Cc1nc2ccccc2c2oc(C(=O)Nc3ccc(C(C)C)cc3)cc12	inconclusive: 50.1 µM [activator, single point]	–
COC(=O)[C@]12CCCCC=C1N(CCc1ccc(OC)c(OC)c1)C(=O)[C@H](CC(=O)NCCCCc1ccccc1)C2	active: 8.91 µM	–
COc1cccc(CN2CCN(CC(=O)Nc3ccccc3Cl)CC2)c1	inactive	–
COc1ccc(S(=O)(=O)Nc2ccc3c(c2)C(=O)N([C@@H](C)CO)C[C@@H](C)[C@H](CN(C)S(=O)(=O)c2ccc(F)cc2)OCCCC[C@H](C)O3)cc1	inconclusive: 14.1 µM [activator, partial curve, poor fit]	–
CCC(=O)N1CCCc2cc(S(=O)(=O)N3CCC(C(=O)NC4CCC(C)CC4)CC3)ccc21 (stereo not drawn)	inconclusive: 31.6 µM [activator, single point]	–
COc1ccccc1/C=C/c1nc(C#N)c(NCc2ccccc2)o1	inactive	–
O=C(O)Cc1ccc(-n2cccc2)cc1	inconclusive: 2.51 µM [activator, full curve]	–
Cc1occc1C(=O)NCCCc1ccccc1	inconclusive: 7.94 µM [activator, partial curve, poor fit]	–
CCN(CC(=O)Nc1ccc(NC(C)=O)cc1)C(=O)c1cc([N+](=O)[O-])ccc1Sc1ccc(Cl)cc1	inconclusive: 22.4 µM [activator, single point]	–
Cc1cc(C)c2cc(CN(Cc3ccc4c(c3)OCO4)Cc3nnnn3Cc3ccco3)c(=O)[nH]c2c1	inconclusive: 12.6 µM [activator, partial curve, poor fit]	–
COC(=O)[C@]12C[C@H](CC(=O)N3CCOCC3)C(=O)N(CCC3=CCCCC3)C1=C[C@H](C1CCCC1)O[C@@H]2C	inconclusive: 17.8 µM [activator, partial curve, poor fit]	–
COc1ccc(N2CCN(C(=O)Cc3csc(NC(=O)Nc4ccccc4OC)n3)CC2)cc1	inconclusive: 17.8 µM [activator, partial curve, poor fit]	–
COc1cccc(C(=O)Nc2cccc(C(=O)NC3=NN(c4c(Cl)cc(Cl)cc4Cl)C(=O)C3)c2)c1	inconclusive: 2.51 µM [activator, full curve, poor fit]	–
O=C(CSc1nnc(-c2ccco2)n1-c1ccc(Cl)cc1)Nc1ccccc1-c1ccccc1	inconclusive: 14.1 µM [activator, partial curve]	–
CC(C)(C)c1csc(NNC(=O)c2ccc(Cl)cc2)n1	inconclusive: 5.62 µM [activator, partial curve]	–
